Assay in all cases: glycan array binding signal (z-score within array); higher = stronger binding
What all share (conditions): glycan notation: IUPAC condensed, linker removed

For assay [1], the target named is Fuc(a1-2)[GalNAc(a1-3)]Gal(b1-4)GlcNAc(b1-3)Gal(b1-4)GlcNAc. Summed up: (§1)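 The binding signal is a Z-score computed within each array. Data were drawn from 3228 arrays in the Consortium for Functional Glycomics database, restricted to those with a known protein sequence. Scores were averaged over arrays of the same protein sequence at different concentrations or buffers, and over linkers, and negative values can be taken as non-binding.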

In assay [2] the target is Fuc(a1-2)[GalNAc(a1-3)]Gal(b1-4)GlcNAc(b1-3)Gal(b1-4)GlcNAc(b1-3)Gal(b1-4)GlcNAc. The essentials:
as §1

Assay [3] deals with Fuc(a1-2)[GalNAc(a1-3)]Gal(b1-4)GlcNAc(b1-3)GalNAc. The essentials: as §1
Assay [4] addresses Fuc(a1-2)[GalNAc(a1-3)]Gal(b1-4)GlcNAc(b1-3)[Fuc(a1-2)[GalNAc(a1-3)]Gal(b1-4)GlcNAc(b1-6)]GalNAc. Summed up: as §1
In assay [5] the target is Fuc(a1-2)[GalNAc(a1-3)]Gal(b1-4)GlcNAc(b1-6)GalNAc. Summed up: as §1
The target of assay [6] is Fuc(a1-2)[GalNAc(a1-3)]Gal(b1-4)[Fuc(a1-3)]GlcNAc. The essentials: as §1
Assay [7] addresses Fuc(a1-2)[GalNAc(a1-3)]Gal(b1-4)[Fuc(a1-3)]GlcNAc(b1-3)GalNAc. Summed up:
as §1

For assay [8], the target named is Fuc(a1-2)[GalNAc(a1-4)]Gal(b1-4)GlcNAc. The essentials: as §1
The target of assay [9] is Fuc(a1-2)[GalNAc(b1-3)]Gal. Summed up: as §1
A further assay concerns the target Fuc(a1-3)GlcNAc. The essentials:
as §1

Assay [10] has as its target Fuc(a1-3)[Gal(b1-4)]Glc6S. The essentials: as §1
Assay [11] deals with Fuc(a1-3)[Gal(b1-4)]GlcNAc. Summed up:
as §1

Assay [12] has as its target Fuc(a1-3)[Gal(b1-4)]GlcNAc(b1-2)Man. The essentials:
as §1

Assay [13] addresses Fuc(a1-3)[Gal(b1-4)]GlcNAc(b1-2)Man(a1-3)[Fuc(a1-3)[Gal(b1-4)]GlcNAc(b1-2)Man(a1-6)]Man(b1-4)GlcNAc(b1-4)GlcNAc. Summed up: as §1
Assay [14] deals with Fuc(a1-3)[Gal(b1-4)]GlcNAc(b1-2)Man(a1-3)[Fuc(a1-3)[Gal(b1-4)]GlcNAc(b1-2)Man(a1-6)]Man(b1-4)GlcNAc(b1-4)[Fuc(a1-6)]GlcNAc. The essentials:
as §1

Assay [15] concerns the target Fuc(a1-3)[Gal(b1-4)]GlcNAc(b1-3)Gal(b1-3)[Fuc(a1-4)]GlcNAc. The essentials: as §1
Assay [16] has as its target Fuc(a1-3)[Gal(b1-4)]GlcNAc(b1-3)Gal(b1-4)[Fuc(a1-3)]GlcNAc. The essentials:
as §1

For assay [17], the target named is Fuc(a1-3)[Gal(b1-4)]GlcNAc(b1-3)Gal(b1-4)[Fuc(a1-3)]GlcNAc(b1-3)Gal(b1-4)[Fuc(a1-3)]GlcNAc. Summed up: as §1
Assay [18] has as its target Fuc(a1-3)[Gal(b1-4)]GlcNAc(b1-3)GalNAc. Summed up:
as §1

Assay [19] has as its target Fuc(a1-3)[Gal(b1-4)]GlcNAc(b1-6)GalNAc. The essentials:
as §1

In assay [20] the target is Fuc(a1-3)[Gal(b1-4)]GlcNAc(b1-6)[Gal(b1-3)GlcNAc(b1-3)]Gal(b1-4)Glc. The essentials: as §1
Assay [21] deals with Fuc(a1-3)[Gal(b1-4)]GlcNAc6S. Summed up:
as §1

Assay [22] concerns the target Fuc(a1-3)[Gal3S(b1-4)]Glc. The essentials: as §1

The list shows a part of the results.

B1: InvD YPIII (Yersinia pseudotuberculosis), B1JSC0 (protein)
chain: MIKYFSFFKKPEPIVGILPNRQSHHILPTHIRRVAWGTLLLQLFIPLSVSFSPAIAAMKASKADTMVSYSSTEPYVLGSGETVAMVAKKYGITVDELKKINIYRTFSRPFTALTTGDEIDIPRKASPFSVDNNKDNRLSVENTLAGHAVAGATALSNGDVAKSGERMVRSAASNEFNNSAQQWLSQFGTARVQLNINDDFHLDGSAADVLIPLYDNEKSILFTQLGARNKDSRNTVNMGAGVRTFQGNWMYGANTFFDNDLTGKNRRIGVGAEAWTDYLKLSANNYFGITDWHQSRDFIDYNERPANGYDLRAEAYLPSYPQLGGKAMYEKYRGDDVALFGKDNRQKNPHAITAGVNYTPIPLVTIGAEHRAGKGGQNDSNINFQLNYRLGETWQSHIDPSAVAASRTLAGSRYDLVERNNHIVLDYQKQNLVRLSLPDSLAGDPFSQLSVTAQVTATHGLERIDWQSAELMAAGGVLKQTSKNGLEITLPEYQMNRTGGNSYILNAIAYDTQGNASSQASMLITVNAQKINIANSTLVAVPINIEANNSDTSVVTLTLKDDNNIPVTGQDVTFLSPLGTLSAMTDSGNGVYTATLTAGTVSGTTAVSSNINGSALDMTPATVTLNGNSGELSITHSMLVAAPVNIEANGSDTSVVTLTLRDSNNNPVTGQTVTFAGTLGTLGAVTEGSSGVYTATLTAGIMVGTSSITASVNSTALGVTPATVTLNGDSGNLSTTNSTLVAAPVNIEANSSDTSVVTLTLRDNNNNPVTGQTVVFTSTLGTLGNVTEQASGVYTATLTAGTVSGVASLSVSVGGNALGVTPATVTLNGDSGNLSTTNSTLVAAPVNIEANSSDTSVVTLTLRDNNNNPVTGQTVNFAGTLGTLGTVSEGSSGVYTTTLTAGTVAGVASLSVNVGGNALGVTPATVTLNGNSGNLSATNSTLVAAPVNIEANSSDTSVVTLTLRDNNNNPVTGQTVAFTSTLGTLGNVTEQASGVYTATLTAGTVSGVASLSVSVNSNALGVTPATVTLNGDSGNLSTTNSTLVAAPVNIEANSSDTSVVTLTLRDNNNNPVTGQTVAFTSTLGTLGNVTEQASGLYTATLTAGTVSGVASLSVNVGGNALGVTPATVTLNGDSGNLSATNSTLVAAPVNIEANSSDTSVVTLTLRDNNNNPVTGQTVAFTSTLGTLGNVTEQASGLYTATLTAGTVSGVASLSVNVGGTALGVTPATVTLNGDSGNLSTTNSTLVAAPVNIEANSSDTSVVTLTLRDNNNNPVTGQTVAFTSTLGTLGNVTEQASGLYTATLTAGTVSGVASLSVSVNSTALGVTPATVTLNGDSGNLSTTNSTLVAAPVNIEANSSDTSVVTLTLRDNNNNPVTGQTVAFTSTLGTLGNVTEQASGVYTATLTAGTVAGVASLSVNVGGNALGVTPATVTLNGDSGNLSTTNSTLVAAPVNIEANSSDTSVVTLTLRDNNNNPVTGQTVAFTSTLGTLGNVTEQASGVYTATLTAGTVSGVASLSVSVGSSALGVTPATVTLNGDSGNLSTTNSTLVAAPVNIEANNSDTSVVTLTLRDNNNNPVTGQTVAFTSTLGTLGNVTEQASGVYTATLTAGTVSGVASLSVSVNSNALGVTPATVTLNGDSGNLSTTNSTLVAAPVNIEANSSDTSVVTLTLRDNNNNPVTGQTVVFTSTLGTLGNVTEQASGLYTATLTAGTVSGVASLSVSVGGNALGVTGNITLAPGALDAARSILAVNKPSINADDRIGSTITFTAQDAQGNAITGLDIAFMTDLENSQIMTLVDHNDGTYTANINGTQTGIANIAVQSSGATIAGLAATMVTITPGAWNTTQATPVMTVALPITTCQSSSGVYKRYYIGIVTHELYDNYGNEISGILTYNLGAGRYTTVTSQNSSVSGSNGLTRRSNSPVSHFILTSDAYTSQAACYAERIANVNVTITVTAITDDFKTSAVNKVFILGTGSN
In the case of B1, the “glycan array binding signal (z-score)” value in assay [1] was -0.044; in [2] it was 0.761; in assay [3], -0.306; in [4], 0.346; in assay [5] it was 0.038; in assay [6], 0.547. For the same molecule, the “glycan array binding signal (z-score)” value in assay [7] was 0.119; in assay [8], -0.158; in assay [9], 0.063; with Fuc(a1-3)GlcNAc, -0.128; in assay [10], -0.08; in assay [11] it was -0.072. The “glycan array binding signal (z-score)” value in assay [12] is -0.112; in [13], -0.169; in [14] it was -0.147; in assay [15], -0.274; in [16] it was 0.096; in assay [17] it was 0.449. Besides, the “glycan array binding signal (z-score)” value in assay [18] was -0.024; in assay [19], -0.132; in assay [20] it was -0.224; in assay [21], -0.197; in assay [22], -0.259.

Values taken from the supplement of paper PMC8728848.
